The whole screen tested about 310,000 compounds, of which about 18,000 (5.8%) were called active. The inconclusive results got no clear call from the source; some entries with a clear call stand among them for comparison. Calls follow the shape of the dose curve; as a rule, active = well fitted inhibition curve with a large enough effect; inconclusive = small, poorly fitted or top-dose-only effect, or another doubt; inactive = no such curve, though single readings can be large or run the other way. Potencies of inconclusive entries are left out as doubtful fits.
Assay: Primary qHTS for delayed death inhibitors of the malarial parasite plastid, 48 hour incubation
Conditions: P. falciparum luciferase growth in erythrocytes; series mostly up to 28.7 µM
Summary of the method: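 Luciferase-expressing P. falciparum in infected erythrocytes (2% hematocrit, 0.1% parasitemia final) in RPMI 1640/0.5% Albumax were exposed to compound for 48 hours at 37 C, 5% CO2; growth read as luminescence.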
Potency is read from the fitted curve at half-maximal effect; tags tell the direction and shape of the fitted curve.

Compound | Potency
N#C/C(=C\Nc1ccccc1SC(F)(F)F)c1nc(-c2ccc(Cl)cc2)cs1 | inactive
COCc1ccc(CN2CCCC(CO)(Cc3cccc(OC)c3)C2)o1 (stereo not given) | inconclusive [inhibitor, single point]
COC(=O)c1ccc(N2CCN(C)CC2)c(NC(=O)COc2ccc(C)cc2)c1 | inconclusive [inhibitor, single point]
N=C1S/C(=C\c2ccco2)C(=O)N1c1ccc2c(c1)OCO2 | inconclusive [inhibitor, single point]
COCCSc1nnc(NC(=O)C2CCN(C(=O)c3ccco3)CC2)s1 | inconclusive [inhibitor, single point]
COc1cccc2cc(C(=O)NCc3ccccc3)c(=N)oc12 | inactive
Cc1cccn2c(=O)c3cc(C(=O)NCC4CCCO4)c(=N)n(Cc4cccnc4)c3nc12 (stereo not given) | inconclusive [inhibitor, single point]
CCc1nc2ccc(C(=O)O)cc2nc1CC | inactive
CSCC[C@H](NC(=O)c1ccco1)c1nnc2ccccn12 | inactive
CCc1ccc(/C=C/C(=O)c2c(C)cc(C)[nH]c2=O)cc1 | active: 9.28 µM
CCN1CCCC(OC(=O)c2cc(-c3ccccc3Cl)nc3ccccc23)C1 (stereo not given) | inconclusive [inhibitor, partial curve]
CCOC(=O)C1=C(C)N(C2CCCCC2)C(=O)C1 | inconclusive [inhibitor, partial curve, poor fit]
COc1ccc(OC)c(S(=O)(=O)N2CCC(C(=O)NCc3ccncc3)CC2)c1 | inactive
O=C(Nc1nnc(SCc2ccccc2F)s1)C1=COCCO1 | inactive
O=C(NCc1ccco1)c1ccc(F)c(S(=O)(=O)N2CCCCC2)c1 | inconclusive [inhibitor, single point]
CCOC(=O)c1nnn(-c2nonc2-n2cccc2)c1CN1CCC(C(=O)OCC)CC1 | active: 0.185 µM
CCCC1COC(Cn2cncn2)(c2ccc(C)cc2)O1 (stereo not given) | inconclusive [inhibitor, single point]
COc1ccccc1CCNC(=O)CSc1ccc(-c2cccs2)nn1 | inconclusive [inhibitor, single point]
C=C1C(=O)O[C@H]2[C@H]1[C@@H](O)CC(=C)[C@@H]1CC(=O)[C@@H](C)[C@H]21 | inconclusive [inhibitor, single point]
CN(c1ccccc1)S(=O)(=O)c1cccc(C(=O)NCCCN2CCCC2=O)c1 | inconclusive [inhibitor, single point]

Source: PubChem BioAssay AID504832 (National Center for Advancing Translational Sciences (NCATS), 2011)
